From PubChem BioAssay AID995 (National Center for Advancing Translational Sciences (NCATS), 2007)
In all, about 72,000 compounds went through this assay and about 710 (0.99%) were called active. The inconclusive results got no clear call from the source; some entries with a clear call stand among them for comparison. Calls come from the whole dose curve; as a rule, active = well fitted inhibition curve with a large enough effect; inconclusive = small, poorly fitted or top-dose-only effect; inactive = no such curve, though single readings can be large or run the other way. Potencies of inconclusive entries are doubtful fits and often do not repeat.

Experiment: qHTS Assay for Inhibitors of the ERK Signaling Pathway using a Homogeneous Screening Assay; note: nearly all actives have a fitted effect of over 55% in size
Settings: HEK293-V1b, vasopressin-stimulated pERK AlphaScreen; activity, negative = inhibition: at 57.5 µM (top of the series) unless noted
Procedure, shortened: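 HEK293 cells stably expressing V1b receptor, preincubated 30 min at 37 °C with compound, then stimulated 5 min with 25 nM vasopressin. Phospho-ERK by AlphaScreen SureFire after 5 h RT; normalized to DMSO and vasopressin; AC50 by Hill fit.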
% is set by controls: 0 for no effect and ±100 for the full control effect; potency is the fitted concentration of half-maximal effect; tags give direction and shape of the fitted curve.

Potency, inconclusive:
CC(=O)N1CCN(c2ccc(NC(=O)c3ccccc3Br)cc2Cl)CC1 25.1 µM [inhibitor, partial curve]
c1ccc(CSc2nnc(-c3ccco3)c(-c3ccco3)n2)cc1 12.6 µM [inhibitor, partial curve]
O=C(NCc1ccco1)c1ccc2c(=O)n(Cc3ccco3)c(SCC(=O)N3CCCC3)nc2c1 39.8 µM [inhibitor, single point]
c1ccc(-c2csc3ncn4nnnc4c23)cc1 6.31 µM [inhibitor, partial curve]
CCOc1ccc(OCc2ccc(C(=O)Nc3cccc(C)n3)o2)cc1 25.1 µM [inhibitor, single point]
CCC(C)OC(=O)C1=C(C)NC2=C(C(=O)C(C(=O)OC)C(C)C2)C1c1ccc(N(C)C)cc1 (stereo not given) 15.8 µM [inhibitor, partial curve]
CC(C)(C)c1cnnn1-c1ccc(-c2csc(N)n2)cc1 3.16 µM [inhibitor, partial curve]
Cc1cc(C)cc(NC(=O)CSc2nnc(Cc3cccn3C)n2-c2ccc(F)cc2)c1 15.8 µM [inhibitor, partial curve]
COc1cc(NC(=O)c2cccc(Cl)c2)c(OC)cc1NC(=O)CN1CCOCC1 15.8 µM [inhibitor, partial curve]
CCOC(=O)c1sc2nc(CSCC(=O)OCc3ccc(C(=O)OC)o3)[nH]c(=O)c2c1C 25.1 µM [inhibitor, single point]
Cn1cnc2c1c(=O)n(Cc1cccc(Br)c1)c(=O)n2C 15.8 µM [inhibitor, partial curve]
Oc1ccc(Nc2nc(-c3ccc(Cl)cc3)cs2)cc1 31.6 µM [inhibitor, single point]
CCCCn1c(NCCC)nc2c1c(=O)[nH]c(=O)n2C 0.0398 µM [inhibitor, full curve, poor fit]
O=C(c1cc(-c2ccc(Cl)cc2)on1)N1CCOCC1 20 µM [inhibitor, partial curve]
COc1ccc(OC)c(NC(=O)Cn2cccc2)c1 3.98 µM [inhibitor, full curve]
Cc1ccc(-c2c(C)c(-c3ccc(F)cc3)nc(N)c2C#N)o1 20 µM [inhibitor, partial curve]
Nc1c(S(=O)(=O)O)cc(Nc2ccc(Nc3nc(Cl)nc(Nc4ccc(S(=O)(=O)O)cc4)n3)c(S(=O)(=O)O)c2)c2c1C(=O)c1ccccc1C2=O 25.1 µM [inhibitor, partial curve]
COc1ccc(N2CCC(CNC(=O)Nc3ccc(C)c(C)c3)C2)cc1 (stereo not given) 12.6 µM [inhibitor, partial curve]
CCCCOC(=O)Cn1c(=O)c2c(nc(Br)n2Cc2ccccc2)n(C)c1=O 31.6 µM [inhibitor, single point]
O=C(CSc1nc2[nH]ncc2c(=O)n1-c1ccccc1Br)NCc1ccco1 12.6 µM [inhibitor, partial curve]
N#CC1=C(N)Oc2cc(O)ccc2C1c1ccccc1 (stereo not given) 31.6 µM [inhibitor, single point]
Clc1ccc(Cn2ncc3c(N4CCCCC4)ncnc32)cc1 39.8 µM [inhibitor, single point]
O=C(CN1C(=O)CCS(=O)(=O)c2ccccc21)NCc1ccccc1 0.398 µM [inhibitor, full curve, poor fit]
COc1ccccc1-c1nc(NCc2ccccc2)c2ccccc2n1 5.01 µM [inhibitor, single point]
CN(C)Cc1cc(C(C)(C)c2cc(CN(C)C)c(O)c(CN(C)C)c2)cc(CN(C)C)c1O 25.1 µM [inhibitor, partial curve]
COc1ccccc1CCn1c(=O)c(-c2ccc(F)c(F)c2)nc2cncnc21 15.8 µM [inhibitor, partial curve]

Potency, active:
COc1ccc(N2C(=O)C(Cl)=C(N(CCO)Cc3ccccc3)C2=O)cc1 12.6 µM
Cc1ccc(S(=O)(=O)/C=C\C#N)cc1 20 µM
COc1cc(C(=O)Nc2nc(-c3cccs3)cs2)cc(OC)c1OC 3.16 µM

Potency, inactive:
CN(C)c1ncc2nc(-c3cc(F)cc(F)c3)c(=O)n(CCc3ccccc3)c2n1
Oc1ccc(Nc2nc(-c3ccc(O)cc3)cs2)cc1
Cc1ccc(-c2nn(CC(=O)NCCN3CCOCC3)c(=O)c3ccccc23)cc1
O=C1CCCC(O)=C1C(C#Cc1ccccc1)C1=C(O)CCCC1=O
Cc1ncsc1C(=O)Nc1nc2c(s1)CC(C)CC2 (stereo not given)
NCCC[C@H](N)CC(=O)N[C@H]1CNC(=O)[C@@H]([C@@H]2C[C@H](O)N=C(N)N2)NC(=O)/C(=C/NC(N)=O)NC(=O)[C@@H](CO)NC(=O)[C@@H](CO)NC1=O
O=C(CN1CC(=O)Oc2ccccc21)OCC(=O)c1ccccc1
O=c1[nH]c2cc3c(cc2cc1C(c1nnnn1C1CCCC1)N1CCSCC1)OCCO3 (stereo not given)
Cc1ccc(C2C(C#N)=C(N)Oc3c2sc2ccccc32)o1 (stereo not given)
N#Cc1cc(-c2ccccc2)oc1NC(=O)c1ccco1
Cc1cccc(CNc2nc(-c3ccccc3CN(C)C)nc3ccccc23)c1
COc1ccc(-c2cc(C(F)F)n3ncc(C(=O)N4CCN(C(=O)c5ccco5)CC4)c3n2)cc1

activity, negative = inhibition, inactive:
Cc1cc(C)nc(SCCc2cccc[n+]2C)n1 9.75% [at 11.5 µM]
CO[C@H]1COC(=O)C/C=C\[C@@H](C)COC(=O)[C@@H](C)NC(=O)C/C=C\[C@@H]1C 10.8% [at 11.5 µM]
NS(=O)(=O)c1ccc(C(=O)O)cc1 -13.4% [at 11.5 µM]
COc1ccc(-c2cc([C@H](O)[C@@H]3CCCCN3)c3ccccc3n2)cc1 35.1% [at 11.5 µM]
